The list shows a part of the results.

The experiment has as its target T1, OsWOX13 (Oryza sativa, UniProt Q5QMM3 1-267).
T1 sequence: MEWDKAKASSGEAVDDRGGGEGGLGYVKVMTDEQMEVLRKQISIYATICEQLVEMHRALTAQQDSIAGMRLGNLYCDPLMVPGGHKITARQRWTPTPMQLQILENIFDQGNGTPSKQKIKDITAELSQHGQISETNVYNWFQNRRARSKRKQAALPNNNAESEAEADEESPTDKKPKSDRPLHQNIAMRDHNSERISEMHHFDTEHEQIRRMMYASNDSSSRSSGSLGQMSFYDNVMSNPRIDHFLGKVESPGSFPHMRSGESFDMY
The experiment is described as follows: protein-binding microarray (RPBM); PBS, 2% BSA, 51.3 ng/ul salmon testes DNA, 50 uM zinc acetate, 200 nM TF, 25 C, 1 h; high values mean tight binding. To be noted: protein: recombinant; tags: N-terminal polyhistidine and DsRed monomer fusion (pET32a); label: CyDye5-dUTP incorporated in the synthesized complementary strand; 3' TTTTT single-stranded linker to array surface; dsDNA, one strand shown. A digest of the protocol:
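A custom Agilent array was converted to double-stranded form by primer extension with Cy5-dUTP and blocked with 2% BSA. Protein at 200 nM in PBS with 2% BSA, salmon testes DNA and 50 µM zinc acetate was applied for 1 h at 25 °C, followed by washing. The proteins were polyhistidine–DsRed N-terminal fusions of transcription factors, expressed in E. coli BL21-CodonPlus and Ni–NTA-purified. The binding signal is per-feature fluorescence intensity (arbitrary units) from an Axon 4000B scanner.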
Turning to “TGGTCATGTTTATTTGATTATTACTTTCTCAGGTTTGGACCGGAGTCACCTAGTGCAG”, the binding signal was 5200 fluorescence intensity (a.u.). With “TTTCTGATGATTGCATGCACGTCTTGCTGGCTCATCCATGCGGAGTCACCTAGTGCAG”, the binding signal was 27000 fluorescence intensity (a.u.). As for “GTTTATAATTAGATCGCATAAAACACTACTCACTATGTCCCGGAGTCACCTAGTGCAG”, the binding signal is 7950 fluorescence intensity (a.u.). Regarding “ACCAAATTAAACCTCATCAGATCGGACGGTGGCAGGGCTCCGGAGTCACCTAGTGCAG”, the binding signal is 12100 fluorescence intensity (a.u.). As to “TTAGTTAAATTACACCACTCAATTATGTTTAGCATTTAACCGGAGTCACCTAGTGCAG”, the binding signal was 12200 fluorescence intensity (a.u.). For “TAAAATTTGACTTTAAAATTTAAATCGAAAATTTTCAAATCGGAGTCACCTAGTGCAG”, the binding signal is 5460 fluorescence intensity (a.u.). With “TTTAGGATTAATTGGATCTATGCCATTATAAATTTTATGTCGGAGTCACCTAGTGCAG”, the binding signal was 24600 fluorescence intensity (a.u.). With “ACATAGATTAATATGAAATATATCACTCCACAAACATGCACGGAGTCACCTAGTGCAG”, the binding signal was 11200 fluorescence intensity (a.u.). With “TCGTAGTAATCATGCGTGATCTGATGAATATTTTATGGATCGGAGTCACCTAGTGCAG”, the binding signal is 4060 fluorescence intensity (a.u.). As for “TTTAAATTATTTCAAAATAATGAATCACAATCTATATTTTCGGAGTCACCTAGTGCAG”, the binding signal is 5830 fluorescence intensity (a.u.).

Turning to “TAAGCCTAATTAATCCATGTTTATTGTAGCATCACATAGGCGGAGTCACCTAGTGCAG”, the binding signal was 10300 fluorescence intensity (a.u.). Then “CAATATATTGATAGAACACAGCTGTAACTAAATGTTGCGTCGGAGTCACCTAGTGCAG”, with 25500 fluorescence intensity (a.u.); and “ATGATTTACTTAACTCATATTAGTAATCTAAATGTGTATTCGGAGTCACCTAGTGCAG”, with 31800 fluorescence intensity (a.u.); and “ATTCAGATTGGTGACACTAACTACTTTTGAAGTGGTTGCCCGGAGTCACCTAGTGCAG”, with 22300 fluorescence intensity (a.u.). Regarding “TGGGCCTGATTAACATGTGCTGTAGAATCGTACAACTGTGCGGAGTCACCTAGTGCAG”, the binding signal was 7530 fluorescence intensity (a.u.). As to “GTGTAATTCTAAATAAAGTAATTACATAAAAGCAGAGTTCCGGAGTCACCTAGTGCAG”, the binding signal was 5340 fluorescence intensity (a.u.).

Turning to “ATTGTAACAAACTCTTTCATAATTATGACTCTCTTGTGTGCGGAGTCACCTAGTGCAG”, the binding signal is 4850 fluorescence intensity (a.u.).

For “CTAACAGATTAGGATTCTGATACCACCTTAATCAGACGAACGGAGTCACCTAGTGCAG”, the binding signal is 25300 fluorescence intensity (a.u.). In the case of “GGAGGCAATCACACGACGTGTCTAGGAGTAGTATATTCCTCGGAGTCACCTAGTGCAG”, the binding signal was 3760 fluorescence intensity (a.u.).

On to “TATGTAATTAGTTTTATAAGTAGTCTATATTTAATACTCTCGGAGTCACCTAGTGCAG”, for which the binding signal was 17400 fluorescence intensity (a.u.). On to “GATTAATTGAAAGTTTACATGGACGACGTTGACTCGGGGCCGGAGTCACCTAGTGCAG”, for which the binding signal is 54700 fluorescence intensity (a.u.). “ATATAAAACTCTGCTAATTAACCTGGGTTAATTACAAGGTCGGAGTCACCTAGTGCAG”: the binding signal is 13100 fluorescence intensity (a.u.).

For the sequence “AAATCATGACGTAATTAGGCTCAAAGGATTTGTCTCACAACGGAGTCACCTAGTGCAG”, the binding signal was 6550 fluorescence intensity (a.u.).

For the origin of these results see PMC7819943, “Rice protein-binding microarrays: a tool to detect cis-acting elements near promoter regions in rice”.
